PMC9922296, “Mechanistic insights into RNA surveillance by the canonical poly(A) polymerase Pla1 of the MTREC complex” (Nature Communications, 2023)
Results are given in words; binding and its absence hold for the method and conditions named. In cells and extracts the contact can be indirect. Some results given as binding are weak or reduced against the parent protein; the word gives no strength. Where a sequence is shown, tags or fusion partners need not be part of it.

Experiments:
[1] = biological target: T1, C-terminally Flag-ProtA-tagged Red1 Δ288-345 deletion mutant (S. pombe) (UniProt Q9UTR8); assay: co-IP; tandem affinity purification of Red1-FTP from S. pombe strains with Pla1-HA; inputs and final eluates blotted with anti-HA and anti-Flag
T1 sequence: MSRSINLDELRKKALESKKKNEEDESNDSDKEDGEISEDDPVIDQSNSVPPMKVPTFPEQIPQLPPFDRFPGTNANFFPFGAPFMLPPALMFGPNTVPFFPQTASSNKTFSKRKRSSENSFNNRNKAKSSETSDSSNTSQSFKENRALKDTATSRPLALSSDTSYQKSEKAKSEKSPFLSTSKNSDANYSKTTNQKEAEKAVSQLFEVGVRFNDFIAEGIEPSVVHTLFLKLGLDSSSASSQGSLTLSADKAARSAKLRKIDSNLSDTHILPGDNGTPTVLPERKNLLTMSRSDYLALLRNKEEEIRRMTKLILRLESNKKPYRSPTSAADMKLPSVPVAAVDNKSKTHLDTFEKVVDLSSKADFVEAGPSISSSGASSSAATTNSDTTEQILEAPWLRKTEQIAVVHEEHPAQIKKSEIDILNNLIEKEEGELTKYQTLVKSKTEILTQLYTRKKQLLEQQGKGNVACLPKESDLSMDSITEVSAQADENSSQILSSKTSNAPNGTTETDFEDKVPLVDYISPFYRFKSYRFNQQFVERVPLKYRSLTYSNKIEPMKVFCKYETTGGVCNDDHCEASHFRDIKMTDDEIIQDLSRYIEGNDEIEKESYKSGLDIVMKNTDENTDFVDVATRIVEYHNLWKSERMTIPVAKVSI

[2] = biological target: T2, C-terminally Flag-ProtA-tagged wild-type Red1 (S. pombe) (UniProt Q9UTR8); assay: as above
T2 sequence: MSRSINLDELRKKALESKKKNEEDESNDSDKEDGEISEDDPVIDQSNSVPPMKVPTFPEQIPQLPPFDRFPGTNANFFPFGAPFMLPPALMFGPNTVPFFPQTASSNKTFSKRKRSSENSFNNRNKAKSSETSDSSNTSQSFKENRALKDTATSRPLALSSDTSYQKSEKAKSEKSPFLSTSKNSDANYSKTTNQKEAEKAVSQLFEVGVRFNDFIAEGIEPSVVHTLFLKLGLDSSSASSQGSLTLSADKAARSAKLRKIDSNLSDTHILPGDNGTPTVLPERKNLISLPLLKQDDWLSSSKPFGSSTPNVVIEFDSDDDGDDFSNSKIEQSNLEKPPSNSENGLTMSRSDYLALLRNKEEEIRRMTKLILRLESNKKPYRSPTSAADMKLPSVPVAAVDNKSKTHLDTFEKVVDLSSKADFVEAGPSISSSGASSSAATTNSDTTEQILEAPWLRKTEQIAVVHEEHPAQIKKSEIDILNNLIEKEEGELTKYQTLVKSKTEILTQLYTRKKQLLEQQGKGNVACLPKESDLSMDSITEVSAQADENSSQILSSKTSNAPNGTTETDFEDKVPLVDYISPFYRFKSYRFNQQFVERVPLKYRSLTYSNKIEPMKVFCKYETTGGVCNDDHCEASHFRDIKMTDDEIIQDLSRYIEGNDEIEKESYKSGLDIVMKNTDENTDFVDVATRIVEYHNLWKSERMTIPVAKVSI

B1: HA-tagged Pla1 (genomic copy) (enzyme, UniProt Q10295 1-566)
chain: MTTKQWGITPPISTAPATEQENALNTALINELKNQNLFESPAESEKRVKVLDELQQITTEFVKKVSLAKHMNEKMANEAGGKIFTYGSYRLGVYGPGSDIDTLVVVPKHVSRDNFFQDLEPMLREREEVTDLAAVPDAYVPIIKFKFLGISIDLIFARLSVPRVPRDLELSDNNLLKGVEERCVLSLNGTRVTDQILQLVPNRAVFKHALRAIKFWAQRRAIYANVVGFPGGVAWAMMVARICQLYPNAVSSVIVAKFFRILHQWNWPQPILLKPIEDGPLQVRIWNPKLYPSDKAHRMPIITPAYPSMCATHNITLSTQTIILREMVRAGEIADQIMVKALPWSALFQKHDFFHRYKHYLTITAAAKTAEAQLKWAGLVESKLRHLVTRLELVDAIALAHPFNKGFDKVYNCSSEEEAQQVASGVTLEVAYESTDHEKLANDTVNEEKADNTESKADGSENGEKQIFPVYTTTCYIGLELEKKKGHPIKRLDISWPTQEFYELCKKWDKYDDTLMNVFIKNTKNTALPDEVFEPGEERPKATKKRSTADTAHSTEQLKRQKVSTA
B1 was tested, and the binding [1] was “no binding” and the binding [2] was “binds”.
